Measurements as given in PubChem BioAssay (Tox21).
Inconclusive results, whose numbers are uncertain, are shown with a selection of clear calls. For part of these data: Where the call is inconclusive, the potency comes from a doubtful curve fit. Activity calls are given as the source filed them. Unless noted, the call rests on the fitted dose curve; in most records, active means well fitted curve in the direction sought with a large enough effect in the repeat runs; inconclusive means weak or mixed curves; inactive means no such curve, though single readings can be large; an effect the other way counts as inactive or inconclusive.

Assays:
[1] = qHTS assay to identify small molecule agonists of the sonic hedgehog signaling (Shh) pathway - cell viability counter screen (AID 1259366); further: nearly all actives have a fitted effect of over 50% in size; further: potency means the concentration at half of the fitted maximal effect
In short: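 After a 4hr attachment at 37C, NIH/3T3 cells bearing an integrated Gli1-driven luciferase reporter were dosed with compounds. Treatment lasted 24hr, with the final hour including CellTiter-Fluor for a fluorescence viability measurement.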

[2] = qHTS assay to identify small molecule antagonists of the sonic hedgehog signaling (Shh) pathway - cell viability counter screen (AID 1259367); further: potency means the concentration at half of the fitted maximal effect; nearly all actives have a fitted effect of over 55% in size
In short: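 Conditioned medium drove Shh signaling in 3T3 Gli1-Luc cells exposed to compounds at 37C and 5% CO2. Viability was determined from CellTiter-Fluor fluorescence, with reagent incubated 1 hr after 23 hr of treatment.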

[3] = target: Thyrotropin receptor (Homo sapiens) (UniProt P16473); assay: qHTS assay to identify small molecule antagonists of the thyroid stimulating hormone receptor (TSHR) signaling pathway (AID 1259385; calls by dose curve; further: potency means the concentration at half of the fitted maximal effect; nearly all actives have a fitted effect of over 20% in size); conditions: TSHR-HEK293 cAMP HTRF, TSH-stimulated antagonist mode; activity change, negative = inhibition: at 92.4 µM (top of the series) unless noted
In short: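 TSHR-HEK293 cells were plated and held 18 h at 37C/5% CO2, then given compound plus Ro20-1724 and stimulated with TSH at 1.5 ng/mL final. After 30 min at room temperature, cAMP was detected with cAMP-d2/anti-cAMP-cryptate (1 h) by fluorescence.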

[4] = target: Progesterone receptor (Homo sapiens) (UniProt P06401); assay: qHTS assay to identify small molecule antagonists of the progesterone receptor (PR) signaling pathway (AID 1346795; active means well fitted inhibition curve with a large enough effect in the signal ratio in the repeat runs, not every such curve was filed as active; inconclusive means weak or mixed curves; the % refers to the signal ratio; further: potency means the concentration at half of the fitted maximal effect; on activity change, negative = inhibition: on the % scale 0 is the no-effect control and ±100 the full control effect); conditions: PR-UAS-bla HEK293T, beta-lactamase FRET ratio, 16 h; activity change, negative = inhibition: at 92.4 µM (top of the series) unless noted
In short: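 Inhibition of R5020-induced (1 nM final) beta-lactamase reporter signal in PR-UAS-bla HEK293T cells was scored by FRET fluorescence after overnight (16 hr) compound treatment.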

[5] = qHTS assay to identify small molecule antagonists of the progesterone receptor (PR) signaling pathway - cell viability counter screen (AID 1346798); further: nearly all actives have a fitted effect of over 50% in size; further: potency means the concentration at half of the fitted maximal effect
In short: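 ATP content as viability readout: CellTiter-Glo luminescence, 30 min room temperature, in PR-UAS-bla HEK293T cells after 16 hr compound/R5020 treatment at 37C and 5% CO2.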

[6] = qHTS assay to identify small molecule agonists of the progesterone receptor (PR) signaling pathway - cell viability counter screen (AID 1346799; calls by dose curve; further: potency means the concentration at half of the fitted maximal effect; nearly all actives have a fitted effect of over 45% in size)
In short: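 Cytotoxicity in PR-bla HEK293T cells: 16 h compound, 37C; CellTiter-Glo added post-FRET read; luminescence after 30 min RT.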

[7] = qHTS assay to identify small molecule antagonists of the sonic hedgehog signaling (Shh) pathway (AID 1259369; calls by dose curve; further: potency means the concentration at half of the fitted maximal effect; nearly all actives have a fitted effect of over 45% in size)
In short: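 Read-out is luminescence from a firefly luciferase gene controlled by the Gli1 response element, in 3T3Gli1-Luc cells pre-incubated 4hr then exposed to compounds and conditioned medium for 24hr.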

[8] = target: Estrogen receptor beta (Homo sapiens) (UniProt Q92731); assay: qHTS assay to identify small molecule antagonists of the estrogen receptor beta (ER-beta) signaling pathway (AID 1259378; active means well fitted inhibition curve with a large enough effect in the signal ratio in the repeat runs, not every such curve was filed as active; inconclusive means weak or mixed curves, or effect the other way; inactive means no such curve, though single readings can be large or run the other way; the % refers to the signal ratio; further: potency means the concentration at half of the fitted maximal effect; on activity, negative = inhibition: on the % scale 0 is the no-effect control and ±100 the full control effect); conditions: ER-beta-UAS-bla HEK293T, beta-lactamase FRET ratio, 16 h; activity, negative = inhibition: at 92.4 µM (top of the series) unless noted
In short: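 ER-beta-UAS-bla HEK293T (GripTite) cells in 2% charcoal-stripped FBS medium were preincubated 6 hr at 37C, dosed with compound, then stimulated with 1 nM E2 (final) for 16 hr; beta-lactamase reporter read by B/G FRET fluorescence after 2 hr substrate loading.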

[9] = qHTS assay to identify small molecule agonists of the estrogen receptor beta (ER-beta) signaling pathway - cell viability counter screen (AID 1259380); further: potency means the concentration at half of the fitted maximal effect; nearly all actives have a fitted effect of over 30% in size
In short: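 Compounds dissolved in DMSO were pin-transferred onto ER-beta-UAS-bla HEK293T cells that had settled 6 hr, and exposure ran 16 hr at 37C. Following the reporter read, CellTiter-Glo luminescence after 30 min at room temperature indicated cytotoxicity.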

[10] = qHTS assay to identify small molecule antagonists of the estrogen receptor beta (ER-beta) signaling pathway - cell viability counter screen (AID 1259382); further: potency means the concentration at half of the fitted maximal effect; nearly all actives have a fitted effect of over 55% in size
In short: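 CellTiter-Glo ATP luminescence measured after the LiveBLAzer read in the same wells; ER-beta-UAS-bla HEK293T cells, 16 hr compound treatment with 1nM 17-beta-estradiol agonist at 37C, 5% CO2.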

[11] = qHTS assay to identify small molecule agonists of the androgen receptor (AR) signaling pathway in the presence of an antagonist - cell viability counter screen (AID 1259379); further: potency means the concentration at half of the fitted maximal effect; nearly all actives have a fitted effect of over 25% in size
In short: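 Each compound was tested at 15 concentrations on MDA-kb2 cells in the presence of 3.0uM nilutamide. Viability was measured by CellTiter-Fluor fluorescence after a 16 hr incubation at 37C in a CO2-free atmosphere.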

[12] = target: Estrogen receptor (Homo sapiens) (UniProt P03372); assay: qHTS assay to identify small molecule agonists of the estrogen receptor alpha (ER-alpha) signaling pathway in the presence of an antagonist (AID 1259383; calls by dose curve; further: potency means the concentration at half of the fitted maximal effect; nearly all actives have a fitted effect of over 15% in size)
In short: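 Luminescent ERE-luciferase reporter, VM7Luc4E2 cells (endogenous ER-alpha); 10.0nM ICI-182,780 final; 15-point compound titration; 22hr at 37C; ONE-Glo, 30min RT.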

[13] = target: Estrogen receptor beta (Homo sapiens) (UniProt Q92731); assay: qHTS assay to identify small molecule agonists of the estrogen receptor beta (ER-beta) signaling pathway (AID 1259377; active means well fitted activation curve with a large enough effect in the signal ratio in the repeat runs, not every such curve was filed as active; inconclusive means weak or mixed curves, or effect the other way; the % refers to the signal ratio; further: potency means the concentration at half of the fitted maximal effect; on activation: on the % scale 0 is the no-effect control and ±100 the full control effect); conditions: ER-beta-UAS-bla HEK293T, beta-lactamase FRET ratio, 16 h; activation: at 92.4 µM (top of the series) unless noted
In short: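 In HEK293T cells bearing a UAS-beta-lactamase reporter under ER-beta control, DMSO-delivered compounds were incubated for 16 hr at 37C. Activity was detected as fluorescence 2 hours after LiveBLAzer B/G FRET substrate addition.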

[14] = target: Progesterone receptor (Homo sapiens) (UniProt P06401); assay: qHTS assay to identify small molecule agonists of the progesterone receptor (PR) signaling pathway (AID 1346784; calls by dose curve; further: on the % scale 0 is the no-effect control and ±100 the full control effect; nearly all actives have a fitted effect of over 30% in size); conditions: PR-UAS-bla HEK293T, beta-lactamase FRET ratio, 16 h; activation: at 92.4 µM (top of the series) unless noted
In short: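 Using charcoal-stripped serum (2%) to limit endogenous steroids, PR-UAS-bla HEK 293T cells received compounds for 16 hr at 37C after 6 hr plating; beta-lactamase FRET fluorescence was recorded following 2 hr substrate loading at room temperature.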

[15] = qHTS assay to identify small molecule agonists of the estrogen receptor alpha (ER-alpha) signaling pathway in the presence of an antagonist - cell viability counter screen (AID 1259386);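 further: potency means the concentration at half of the fitted maximal effect; cells exposed to compounds for 22 h at 37 °C before the viability read; nearly all actives have a fitted effect of over 30% in size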
In short: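 Using estrogen-depleted VM7Luc4E2 cells, the 15-concentration compound series was applied together with 10.0nM ICI-182,780 and incubated 22hr at 37C/5% CO2. Cell viability was then scored by CellTiter-Fluor.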
Tags describe the fitted curve by direction and shape or compound fluorescence and quenching.

UniProt Q92731, sequence (Q92731 whole entry, looked up): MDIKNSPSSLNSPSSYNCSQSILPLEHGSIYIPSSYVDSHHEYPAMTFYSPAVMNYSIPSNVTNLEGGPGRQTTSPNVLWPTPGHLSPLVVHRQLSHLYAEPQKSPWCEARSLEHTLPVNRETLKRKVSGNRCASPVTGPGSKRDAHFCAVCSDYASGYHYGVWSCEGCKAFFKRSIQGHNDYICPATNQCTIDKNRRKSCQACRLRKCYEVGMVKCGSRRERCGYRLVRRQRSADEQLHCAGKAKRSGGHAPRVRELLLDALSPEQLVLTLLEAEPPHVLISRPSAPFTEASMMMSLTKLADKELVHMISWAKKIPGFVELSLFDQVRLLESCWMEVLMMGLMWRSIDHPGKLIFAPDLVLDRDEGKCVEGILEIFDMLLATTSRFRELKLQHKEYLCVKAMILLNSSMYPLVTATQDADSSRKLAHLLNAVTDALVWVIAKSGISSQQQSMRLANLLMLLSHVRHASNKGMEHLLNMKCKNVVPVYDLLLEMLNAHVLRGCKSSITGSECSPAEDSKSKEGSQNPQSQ
UniProt P06401, sequence (P06401 whole entry, looked up): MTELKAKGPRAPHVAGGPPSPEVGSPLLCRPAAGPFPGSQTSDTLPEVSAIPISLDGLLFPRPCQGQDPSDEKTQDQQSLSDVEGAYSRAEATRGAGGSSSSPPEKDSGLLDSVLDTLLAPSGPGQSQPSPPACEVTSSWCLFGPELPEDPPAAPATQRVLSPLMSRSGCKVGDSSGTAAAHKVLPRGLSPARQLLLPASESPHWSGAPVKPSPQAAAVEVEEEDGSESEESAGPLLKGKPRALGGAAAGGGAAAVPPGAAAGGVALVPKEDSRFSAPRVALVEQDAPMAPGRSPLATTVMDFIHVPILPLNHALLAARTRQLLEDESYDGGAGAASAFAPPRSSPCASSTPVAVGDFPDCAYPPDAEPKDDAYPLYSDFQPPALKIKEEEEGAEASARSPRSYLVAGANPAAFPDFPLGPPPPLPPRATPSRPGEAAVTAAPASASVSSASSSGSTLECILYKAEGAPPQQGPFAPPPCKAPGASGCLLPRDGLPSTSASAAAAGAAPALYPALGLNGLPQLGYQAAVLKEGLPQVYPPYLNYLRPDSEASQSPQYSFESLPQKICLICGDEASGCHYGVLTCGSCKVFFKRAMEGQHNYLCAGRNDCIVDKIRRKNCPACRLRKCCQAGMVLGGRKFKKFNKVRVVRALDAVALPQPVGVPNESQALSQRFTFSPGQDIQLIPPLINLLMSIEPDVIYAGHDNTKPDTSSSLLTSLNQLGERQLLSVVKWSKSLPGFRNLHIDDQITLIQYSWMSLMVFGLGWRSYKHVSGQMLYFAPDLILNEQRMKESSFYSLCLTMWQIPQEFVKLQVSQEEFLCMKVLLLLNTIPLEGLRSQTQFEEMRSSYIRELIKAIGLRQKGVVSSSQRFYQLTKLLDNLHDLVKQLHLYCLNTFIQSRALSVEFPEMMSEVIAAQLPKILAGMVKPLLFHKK
UniProt P16473, sequence (P16473 whole entry, looked up): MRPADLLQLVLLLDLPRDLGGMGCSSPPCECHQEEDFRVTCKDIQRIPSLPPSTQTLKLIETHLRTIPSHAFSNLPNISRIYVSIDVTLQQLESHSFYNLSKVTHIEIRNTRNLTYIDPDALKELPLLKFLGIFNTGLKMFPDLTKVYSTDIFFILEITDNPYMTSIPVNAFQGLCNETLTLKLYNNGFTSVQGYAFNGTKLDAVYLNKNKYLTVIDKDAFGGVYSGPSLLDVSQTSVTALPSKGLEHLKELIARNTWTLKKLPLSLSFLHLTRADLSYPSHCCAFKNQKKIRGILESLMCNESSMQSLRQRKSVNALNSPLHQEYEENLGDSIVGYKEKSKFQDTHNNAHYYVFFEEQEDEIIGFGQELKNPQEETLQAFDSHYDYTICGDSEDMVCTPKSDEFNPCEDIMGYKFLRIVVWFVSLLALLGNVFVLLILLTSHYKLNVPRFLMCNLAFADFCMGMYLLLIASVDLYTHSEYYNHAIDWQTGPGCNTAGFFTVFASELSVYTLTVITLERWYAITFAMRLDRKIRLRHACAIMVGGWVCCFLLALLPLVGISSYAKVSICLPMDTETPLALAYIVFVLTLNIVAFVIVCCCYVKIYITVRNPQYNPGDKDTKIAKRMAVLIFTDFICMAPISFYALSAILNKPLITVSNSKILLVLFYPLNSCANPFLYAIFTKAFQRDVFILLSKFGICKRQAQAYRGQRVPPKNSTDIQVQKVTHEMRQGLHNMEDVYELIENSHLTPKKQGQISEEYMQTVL
UniProt P03372, sequence (P03372 whole entry, looked up): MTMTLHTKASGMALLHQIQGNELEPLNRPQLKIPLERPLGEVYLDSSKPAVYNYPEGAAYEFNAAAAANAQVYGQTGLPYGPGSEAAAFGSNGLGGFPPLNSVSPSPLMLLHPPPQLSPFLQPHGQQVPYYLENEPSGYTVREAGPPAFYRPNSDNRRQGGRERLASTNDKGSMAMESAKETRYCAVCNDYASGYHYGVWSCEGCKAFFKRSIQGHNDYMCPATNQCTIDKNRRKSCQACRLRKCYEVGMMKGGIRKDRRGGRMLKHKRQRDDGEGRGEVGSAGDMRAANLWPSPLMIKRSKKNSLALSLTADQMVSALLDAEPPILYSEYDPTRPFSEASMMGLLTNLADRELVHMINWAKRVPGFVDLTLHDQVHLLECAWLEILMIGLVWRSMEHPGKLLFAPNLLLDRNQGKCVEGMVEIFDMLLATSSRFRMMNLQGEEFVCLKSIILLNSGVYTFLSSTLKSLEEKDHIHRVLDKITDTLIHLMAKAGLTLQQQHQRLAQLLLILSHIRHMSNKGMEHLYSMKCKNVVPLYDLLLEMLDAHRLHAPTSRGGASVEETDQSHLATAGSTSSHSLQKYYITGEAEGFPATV

CN(C)CCc1c[nH]c2cccc(O)c12
inconclusive: Potency [1] 67.9 µM [cytotoxic, single point] | Potency [2] 67.9 µM [cytotoxic, single point] | Potency [3] 27 µM | Potency [4] 67.9 µM [falling, single point] | Potency [5] 67.9 µM [cytotoxic, single point] | Potency [6] 53.9 µM [cytotoxic, partial curve]

CN1C[C@H](CNC(=O)OCc2ccccc2)C[C@@H]2c3cccc4c3c(cn4C)C[C@H]21
inconclusive: Potency [1] 33.5 µM [cytotoxic, single point] | Potency [7] 33.5 µM [inhibitor, single point] | activity, negative = inhibition [8] -48.7% [at 42.5 µM] | Potency [9] 29.8 µM [cytotoxic, single point] | Potency [10] 23.7 µM [cytotoxic, partial curve] | Potency [3] 33.5 µM [falling, single point] | Potency [5] 21.1 µM [cytotoxic, partial curve] | Potency [6] 26.6 µM [cytotoxic, single point]

CC(=O)/C=C/c1ccc2c(c1)OCO2
inconclusive: Potency [1] 77.4 µM [cytotoxic, single point] | Potency [2] 21.8 µM [cytotoxic, full curve] | Potency [11] 68.9 µM [cytotoxic, single point] | Potency [12] 54.8 µM [activator, partial curve] | Potency [4] 4.35 µM [rising, full curve] | Potency [5] 3.46 µM [cytotoxic, full curve, poor fit] | Potency [6] 77.4 µM [rising, single point]

CON(C)C(=O)Nc1ccc(Cl)cc1
inconclusive: Potency [7] 0.243 µM [inhibitor, single point] | Potency [4] 0.969 µM [rising, single point]
inactive: Potency [1] | Potency [13] | Potency [14]

CCN(CC)C(=O)[C@@H]1C=C2c3cccc4[nH]cc(c34)C[C@H]2N(C)C1
inconclusive: Potency [1] 40.1 µM [cytotoxic, full curve] | Potency [2] 11.3 µM [cytotoxic, full curve] | Potency [7] 35.7 µM [inhibitor, partial curve, poor fit] | Potency [9] 40.1 µM [cytotoxic, partial curve] | Potency [6] 101 µM [rising, partial curve]

CCc1ccc(C(=O)NN(C(=O)c2cc(C)cc(C)c2)C(C)(C)C)cc1
active: Potency [1] 2.17 µM | Potency [2] 2.43 µM
inconclusive: Potency [8] 48.6 µM [inhibitor, partial curve] | activity change, negative = inhibition [4] -16.4% | Potency [6] 27.3 µM [rising, full curve]

Oc1ccc2[nH]cc(CCCCN3CC=C(c4ccccc4)CC3)c2c1
active: Potency [7] 3.35 µM
inactive: Potency [5]
inconclusive: Potency [1] 18.8 µM [cytotoxic, partial curve] | Potency [13] 26.6 µM [rising, partial curve] | Potency [11] 23.7 µM [cytotoxic, partial curve]

O=C(N[C@H](c1ccccc1)[C@@H]1CN2CCC1CC2)c1c(Cl)ccc(C(F)(F)F)c1Cl
inconclusive: Potency [11] 98.4 µM [cytotoxic, single point] | Potency [9] 43.9 µM [cytotoxic, full curve, poor fit] | Potency [10] 87.7 µM [cytotoxic, single point] | Potency [4] 43.9 µM [falling, partial curve] | Potency [5] 3.11 µM [rising, full curve] | Potency [6] 3.11 µM [rising, full curve]
active: Potency [1] 39.2 µM | Potency [2] 43.9 µM | Potency [8] 39.2 µM

Clc1ccc(CO/N=C(\Cn2ccnc2)c2ccc(Cl)cc2Cl)c(Cl)c1
inconclusive: Potency [1] 33.5 µM [cytotoxic, single point] | Potency [2] 33.5 µM [cytotoxic] | Potency [13] 21.1 µM [falling, partial curve] | Potency [8] 29.8 µM [cytotoxic, single point] | Potency [11] 29.8 µM [cytotoxic, partial curve] | Potency [15] 33.5 µM [cytotoxic, single point]
active: Potency [9] 29.8 µM | Potency [10] 29.8 µM | Potency [5] 21.1 µM | Potency [6] 15 µM
